# Measured values reported in PubChem BioAssay (Tox21).
# Values joined by “and” are separate entries in the source; they are usually repeats but may differ in a detail not shown here. Equal values may be shown once. Active and inactive are the calls of the source. Unless noted, the call rests on the fitted dose curve; in most records, active means well fitted curve in the direction sought with a large enough effect in the repeat runs; inconclusive means weak or mixed curves; inactive means no such curve, though single readings can be large; an effect the other way counts as inactive or inconclusive.
# Legend:
# [1] = qHTS assay for small molecule agonists of the p53 signaling pathway (AID 651631; calls by dose curve; further: potency means the concentration at half of the fitted maximal effect; nearly all actives have a fitted effect of over 15% in size); conditions: HCT-116 p53RE-bla reporter, beta-lactamase FRET ratio, 16 h; activation: at 73.3 µM (top of the series) unless noted
# In short: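 We treat p53RE-bla HCT-116 cells with compounds for 16 h at 37 °C, add LiveBLAzer B/G FRET substrate for 2 h at room temperature, and measure fluorescence intensity.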
# [2] = qHTS assay for small molecule disruptors of the mitochondrial membrane potential (AID 720635); conditions: HepG2 mitochondrial membrane potential, Mito-MPS dye ratio; ratio activity, negative = MMP loss: at 83.2 µM (top of the series) unless noted; further: potency means the concentration at half of the fitted maximal effect; on ratio activity, negative = MMP loss: on the % scale 0 is the no-effect control and ±100 the full control effect
# In short: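 HepG2 cells exposed to compound 1 hr at 37C, then Mito-MPS dye 30 min. Ratio read of aggregate (540/590 nm) versus monomer (490/535 nm) fluorescence.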
# [3] = target: Glucocorticoid receptor (Homo sapiens) (UniProt P04150); test: qHTS assay to identify small molecule antagonists of the glucocorticoid receptor (GR) signaling pathway (AID 720692; active means well fitted inhibition curve with a large enough effect in the signal ratio in the repeat runs, not every such curve was filed as active; inconclusive means weak or mixed curves, or effect the other way; inactive means no such curve, though single readings can be large or run the other way; the % refers to the signal ratio; further: potency means the concentration at half of the fitted maximal effect; on activity change, negative = inhibition: on the % scale 0 is the no-effect control and ±100 the full control effect); conditions: GR-bla HeLa, beta-lactamase FRET ratio, dexamethasone-stimulated, 18 h; activity change, negative = inhibition: at 58.5 µM (top of the series) unless noted
# In short: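 Dexamethasone (5 nM final) stimulated a stably integrated GRE-beta-lactamase reporter in HeLa cells during 18 h co-incubation with compounds; signal was quantified as fluorescence intensity of B/G FRET substrate after 2 h.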
# [4] = qHTS assay for identifying genotoxic compounds that show differential cytotoxicity against isogenic chicken DT40 cell lines with known DNA damage response pathways - Rad54/Ku70 mutant cell line (AID 743015); conditions: DT40 Rad54/Ku70 mutant viability, CellTiter-Glo, 40 h; activity change, negative = cytotoxicity: at 66.8 µM (top of the series) unless noted; further: nearly all actives have a fitted effect of over 60% in size; further: potency means the concentration at half of the fitted maximal effect; on activity change, negative = cytotoxicity: on the % scale 0 is the no-effect control and ±100 the full control effect
# [5] = tested on: thyroid hormone receptor (rat, GH3 cells); test: qHTS assay to identify small molecule agonists of the thyroid receptor (TR) signaling pathway (AID 743066; calls by dose curve; further: potency means the concentration at half of the fitted maximal effect); conditions: GH3.TRE-Luc cells, TR agonist luciferase, 24 h; activation: at 83.9 µM (top of the series) unless noted
# [6] = target: Peroxisome proliferator-activated receptor gamma (Homo sapiens) (UniProt P37231); test: qHTS assay to identify small molecule agonists of the peroxisome proliferator-activated receptor gamma (PPARg) signaling pathway (AID 743094; active means well fitted activation curve with a large enough effect in the signal ratio in the repeat runs, not every such curve was filed as active; inconclusive means weak or mixed curves, or effect the other way; inactive means no such curve, though single readings can be large or run the other way; the % refers to the signal ratio; further: on the % scale 0 is the no-effect control and ±100 the full control effect); conditions: HEK293H PPARg-UAS-bla, beta-lactamase FRET ratio, 17 h; activation: at 57 µM (top of the series) unless noted
# In short: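 Following 5 h plating at 37C, PPARg-bla HEK293H cells receive compound or DMSO for 17 h; fluorescence intensity is recorded after LiveBLAzer B/G loading for 1 h at room temperature.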
# [7] = qHTS assay to identify small molecule antagonists of the androgen receptor (AR) signaling pathway - cell viability counter screen (AID 743033; further: potency means the concentration at half of the fitted maximal effect; nearly all actives have a fitted effect of over 45% in size); conditions: AR-bla HEK293 viability, CellTiter-Glo luminescence, 16 h; activity change, negative = cytotoxicity: at 58.5 µM (top of the series) unless noted
# [8] = qHTS assay to identify small molecule antagonists of the androgen receptor (AR) signaling pathway using the MDA cell line - cell viability counter screen (AID 743041; further: potency means the concentration at half of the fitted maximal effect; nearly all actives have a fitted effect of over 45% in size); conditions: MDA-kb2 viability, CellTiter-Fluor, 16 h, cells co-treated with R1881 androgen agonist; viability change, negative = cytotoxic: at 70.3 µM (top of the series)
# In short: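 MDA-kb2 AR-luc cells (MMTV-luciferase, AR/GR responsive) treated with compounds plus R1881 agonist for 16 h at 37C. CellTiter-Fluor added at 15.5 h; fluorescence read after 30 min in the same wells.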
# [9] = qHTS assay to identify small molecule antagonists of the thyroid receptor (TR) signaling pathway - cell viability counter screen (AID 743064); conditions: GH3.TRE-Luc viability, CellTiter-Fluor, 24 h; activity change, negative = cytotoxic: at 70.3 µM (top of the series) unless noted; further: nearly all actives have a fitted effect of over 50% in size; further: potency means the concentration at half of the fitted maximal effect
# In short: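 In rat pituitary GH3.TRE-Luc reporter cells co-exposed to compound and 1 nM T3 for 23.5 h, cytotoxicity was assessed with CellTiter-Fluor in the same wells, read by fluorescence.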
# [10] = target: Estrogen receptor (Homo sapiens) (UniProt P03372); test: qHTS assay to identify small molecule antagonists of the estrogen receptor alpha (ER-alpha) signaling pathway (AID 743069; active means well fitted curve in the direction sought with a large enough effect in the signal ratio in the repeat runs, not every such curve was filed as active; inconclusive means weak or mixed curves, or effect the other way; inactive means no such curve, though single readings can be large or run the other way; the % refers to the signal ratio; further: potency means the concentration at half of the fitted maximal effect); conditions: HEK293 ER-alpha-UAS-bla, beta-lactamase ratio, antagonist mode; activity, negative = inhibition: at 69.4 µM (top of the series) unless noted
# In short: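 HEK293 ER-alpha-UAS-bla GripTite cells, held overnight in 2% charcoal-stripped FBS, 5,000 cells/well, preincubated 4 h, then compound plus 17beta-estradiol for 18 h at 37C. Beta-lactamase read by LiveBLAzer B/G FRET substrate, 2 h at room temperature.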
# [11] = target: Estrogen receptor (Homo sapiens) (UniProt P03372); test: qHTS assay to identify small molecule agonists of the estrogen receptor alpha (ER-alpha) signaling pathway using the BG1 cell line (AID 743079); conditions: BG1Luc4E2 cells, ERE-luciferase agonist, 22 h; activation: at 70.3 µM (top of the series) unless noted; further: potency means the concentration at half of the fitted maximal effect; nearly all actives have a fitted effect of over 20% in size
# [12] = qHTS assay to identify small molecule antagonists of the estrogen receptor alpha (ER-alpha) signaling pathway using the BG1 cell line (AID 743080; calls by dose curve;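 further: BG1 cells stimulated with 17beta-estradiol alongside compound; potency means the concentration at half of the fitted maximal effect; nearly all actives have a fitted effect of over 25% in size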); conditions: BG1Luc4E2 ERE-luciferase antagonist mode, luminescence; activity change, negative = inhibition: at 70.3 µM (top of the series) unless noted
# In short: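 Endogenous full-length ER-alpha in BG1-Luc-4E2 cells drives a stably integrated 4×ERE luciferase gene; compounds were tested against 17beta-estradiol over 21.5 h, with luminescence and multiplexed viability fluorescence recorded.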
# [13] = qHTS assay to identify small molecule antagonists of the estrogen receptor alpha (ER-alpha) signaling pathway using the BG1 cell line - cell viability counter screen (AID 743081); conditions: BG1Luc4E2 viability, CellTiter-Fluor, 22 h; activity change, negative = cytotoxicity: at 70.3 µM (top of the series) unless noted;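 further: compound given together with 17beta-estradiol as the ER stimulus; potency means the concentration at half of the fitted maximal effect; nearly all actives have a fitted effect of over 45% in size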
# [14] = target: Glucocorticoid receptor (Homo sapiens) (UniProt P04150); test: qHTS assay to identify small molecule agonists of the glucocorticoid receptor (GR) signaling pathway (AID 720691; active means well fitted activation curve with a large enough effect in the signal ratio in the repeat runs, not every such curve was filed as active; inconclusive means weak or mixed curves, or effect the other way; inactive means no such curve, though single readings can be large or run the other way; the % refers to the signal ratio; further: potency means the concentration at half of the fitted maximal effect); conditions: GR-bla HeLa, beta-lactamase reporter ratio, 18 h; activation: at 62.4 µM (top of the series) unless noted
# In short: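 Reporter read-out: fluorescence intensity following 2 h room-temperature LiveBLAzer B/G FRET substrate loading. Prior step: GR-bla HeLa cells held 4 h, then treated 18 h at 37 C.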
# [15] = qHTS assay for identifying genotoxic compounds that show differential cytotoxicity against isogenic chicken DT40 cell lines with known DNA damage response pathways - wild type cell line (AID 743012); conditions: DT40 wild type chicken cells viability, CellTiter-Glo, 40 h; activity change, negative = cytotoxicity: at 68.4 µM (top of the series) unless noted; further: potency means the concentration at half of the fitted maximal effect; nearly all actives have a fitted effect of over 60% in size
# In short: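 Using parental DT40 (300 cells/well), compounds delivered in DMSO incubate 40 h at 37 C/5% CO2. CellTiter-Glo reagent then stands 30 min at room temperature, and luminescence gives cell viability.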
# [16] = qHTS assay for identifying genotoxic compounds that show differential cytotoxicity against isogenic chicken DT40 cell lines with known DNA damage response pathways - Rev3 mutant cell line (AID 743014); conditions: chicken DT40 Rev3-/- viability, CellTiter-Glo, 40 h; activity, negative = cytotoxicity: at 68.4 µM (top of the series) unless noted; further: potency means the concentration at half of the fitted maximal effect; nearly all actives have a fitted effect of over 55% in size
# [17] = qHTS assay to identify small molecule antagonists of the glucocorticoid receptor (GR) signaling pathway - cell viability counter screen (AID 720693); conditions: GR-bla HeLa viability, CellTiter-Glo luminescence, 18 h, with 5 nM dexamethasone present; viability change, negative = cytotoxic: at 58.5 µM (top of the series); further: potency means the concentration at half of the fitted maximal effect; nearly all actives have a fitted effect of over 55% in size
# [18] = qHTS assay to identify small molecule antagonists of the estrogen receptor alpha (ER-alpha) signaling pathway - cell viability counter screen (AID 743074; calls by dose curve;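 further: HEK293 cells carrying ER-alpha-UAS-bla reporter stimulated with 17beta-estradiol; potency means the concentration at half of the fitted maximal effect; nearly all actives have a fitted effect of over 45% in size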)
# Tags describe the fitted curve by direction and shape or compound fluorescence and quenching.
# Chain of UniProt P03372 (P03372 whole entry, looked up): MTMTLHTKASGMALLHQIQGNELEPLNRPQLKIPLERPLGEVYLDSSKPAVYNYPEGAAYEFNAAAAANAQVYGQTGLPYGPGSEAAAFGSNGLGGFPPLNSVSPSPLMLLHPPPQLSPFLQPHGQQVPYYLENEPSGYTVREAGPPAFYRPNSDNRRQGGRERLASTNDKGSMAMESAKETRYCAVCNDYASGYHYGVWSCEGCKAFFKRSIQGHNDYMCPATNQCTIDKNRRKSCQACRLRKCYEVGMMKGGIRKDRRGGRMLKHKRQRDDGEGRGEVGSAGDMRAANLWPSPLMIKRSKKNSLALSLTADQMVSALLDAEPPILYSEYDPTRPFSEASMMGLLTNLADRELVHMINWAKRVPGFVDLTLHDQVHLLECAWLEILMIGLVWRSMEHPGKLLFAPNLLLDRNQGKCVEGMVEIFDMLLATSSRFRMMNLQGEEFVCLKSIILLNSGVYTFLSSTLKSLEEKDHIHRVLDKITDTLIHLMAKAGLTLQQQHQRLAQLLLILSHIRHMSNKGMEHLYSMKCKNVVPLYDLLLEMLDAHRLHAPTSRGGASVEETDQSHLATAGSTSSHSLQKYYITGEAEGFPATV
# Chain of UniProt P04150 (P04150 whole entry, looked up): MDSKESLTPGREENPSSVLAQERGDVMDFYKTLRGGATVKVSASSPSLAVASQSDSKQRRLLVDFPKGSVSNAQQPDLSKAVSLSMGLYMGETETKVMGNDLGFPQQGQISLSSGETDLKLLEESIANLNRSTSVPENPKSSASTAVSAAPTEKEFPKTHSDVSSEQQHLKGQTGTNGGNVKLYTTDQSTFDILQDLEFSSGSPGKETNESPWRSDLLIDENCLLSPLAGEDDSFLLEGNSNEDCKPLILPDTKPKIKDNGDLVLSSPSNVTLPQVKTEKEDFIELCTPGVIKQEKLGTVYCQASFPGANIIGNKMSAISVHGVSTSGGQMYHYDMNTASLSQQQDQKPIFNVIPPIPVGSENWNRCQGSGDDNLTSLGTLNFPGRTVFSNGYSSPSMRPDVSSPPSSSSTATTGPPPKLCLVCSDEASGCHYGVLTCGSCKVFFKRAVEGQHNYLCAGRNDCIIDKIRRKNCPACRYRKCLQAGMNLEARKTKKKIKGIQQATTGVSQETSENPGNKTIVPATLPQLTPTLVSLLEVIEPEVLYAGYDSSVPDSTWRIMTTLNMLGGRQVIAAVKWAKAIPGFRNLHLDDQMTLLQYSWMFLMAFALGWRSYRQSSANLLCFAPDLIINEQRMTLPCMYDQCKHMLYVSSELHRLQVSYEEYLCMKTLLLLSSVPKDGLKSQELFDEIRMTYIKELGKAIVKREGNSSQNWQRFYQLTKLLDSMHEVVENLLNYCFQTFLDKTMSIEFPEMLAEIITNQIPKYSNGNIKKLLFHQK
# Chain of UniProt P37231 (P37231 whole entry, looked up): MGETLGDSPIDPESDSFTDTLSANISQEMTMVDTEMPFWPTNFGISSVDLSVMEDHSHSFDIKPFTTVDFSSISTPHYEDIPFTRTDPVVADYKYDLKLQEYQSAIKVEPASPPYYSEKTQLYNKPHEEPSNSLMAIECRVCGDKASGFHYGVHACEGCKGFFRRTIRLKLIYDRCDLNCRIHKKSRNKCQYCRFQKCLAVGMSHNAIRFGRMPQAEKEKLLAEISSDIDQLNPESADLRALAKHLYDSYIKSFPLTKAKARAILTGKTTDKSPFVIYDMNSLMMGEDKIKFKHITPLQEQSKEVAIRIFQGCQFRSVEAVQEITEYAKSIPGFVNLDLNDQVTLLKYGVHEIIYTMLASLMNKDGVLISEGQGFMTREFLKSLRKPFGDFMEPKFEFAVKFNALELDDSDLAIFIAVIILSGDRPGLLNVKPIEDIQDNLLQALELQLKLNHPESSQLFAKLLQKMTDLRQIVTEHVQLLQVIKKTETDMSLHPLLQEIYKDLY
compound,measurement,setting,value
COc1ccc(C(=O)CCC(=O)O)c2ccccc12,Potency,[1],"inconclusive: 13.3 µM [rising, partial curve, poor fit]"
same,Potency,[2],inactive
same,"activity change, negative = inhibition",[3],inconclusive: -2.99%
same,Potency,[4],inactive
same,Potency,[5],inactive
same,activation,[6],inconclusive: 3.96%
O=[N+]([O-])c1ccc(Oc2ccc(N=C=S)cc2)cc1,Potency,[1],active: 13.3 µM
same,Potency,[2],active: 5.96 µM
same,Potency,[3],"inconclusive: 16.9 µM [cytotoxic, partial curve]"
same,Potency,[4],active: 18.8 µM
same,Potency,[7],"inconclusive: 26.8 µM [cytotoxic, single point]"
same,Potency,[8],active: 26.6 µM
same,Potency,[9],"inconclusive: 33.5 µM [cytotoxic, single point]"
same,Potency,[10],active: 848 nM [inconclusive]
same,Potency,[11],"inconclusive: 21.1 µM [inhibitor, partial curve]"
same,Potency,[12],"inconclusive: 23.7 µM [falling, partial curve]"
same,Potency,[13],"inconclusive: 33.5 µM [cytotoxic, single point]"
same,activation,[6],inconclusive: 15.8%
CC(=O)OCC(=O)[C@@]1(O)[C@H](C)C[C@H]2[C@@H]3C[C@H](F)C4=CC(=O)C=C[C@]4(C)[C@H]3[C@@H](O)C[C@@]21C,Potency,[1],"inconclusive: 0.119 µM [activator, single point]"
same,Potency,[2],inactive
same,Potency,[14],active: 26.8 nM [inconclusive]
same,Potency,[3],"inconclusive: 0.0477 µM [activator, full curve]"
same,Potency,[15],"inconclusive: 26.6 µM [cytotoxic, partial curve, poor fit]"
same,Potency,[16],"inconclusive: 13.3 µM [cytotoxic, partial curve, poor fit]"
same,Potency,[4],"inconclusive: 33.5 µM [cytotoxic, partial curve, poor fit]"
same,Potency,[10],"inconclusive: 3790 nM [fluorescent, partial curve, poor fit]"
same,Potency,[12],"inconclusive: 0.266 µM [rising, full curve]"
same,Potency,[13],"inconclusive: 7.5 µM [cytotoxic, single point]"
C[N+]1(C)[C@@H]2CC(OC(=O)C(O)(c3cccs3)c3cccs3)C[C@H]1[C@@H]1O[C@@H]12 (some centres not stated),Potency,[1],"inconclusive: 23.7 µM [activator, partial curve, poor fit]"
same,Potency,[2],inactive
same,activation,[14],inconclusive: 0.423%
same,Potency,[15],"inconclusive: 33.5 µM [rising, partial curve, poor fit]"
same,Potency,[7],"inconclusive: 13.4 µM [rising, single point]"
same,Potency,[9],inactive
CON=C1C[C@]2(C[C@@H]3C[C@@H](C/C=C(\C)C[C@@H](C)/C=C/C=C4\CO[C@@H]5[C@H](O)C(C)=C[C@@H](C(=O)O3)[C@]45O)O2)O[C@H](/C(C)=C/C(C)C)[C@H]1C,Potency,[1],"inconclusive: 16.8 µM [cytotoxic, full curve] and inconclusive: 9.44 µM [cytotoxic, full curve]"
same,"ratio activity, negative = MMP loss",[2],inconclusive: -48%
same,Potency,[14],"inconclusive: 7.56 µM [cytotoxic, full curve] and inconclusive: 7.56 µM [cytotoxic]"
same,Potency,[3],"inconclusive: 13.4 µM [cytotoxic, full curve]"
same,Potency,[17],active: 7.56 µM and active: 10.7 µM
same,Potency,[16],"inconclusive: 33.5 µM [cytotoxic, single point]"
same,Potency,[9],active: 5.31 µM
same,Potency,[5],"inconclusive: 4.73 µM [inhibitor, partial curve, poor fit] and inconclusive: 5.31 µM [inhibitor, partial curve, poor fit]"
same,Potency,[10],inconclusive: 8.49 µM [partial curve] and inconclusive: 9.52 µM
same,Potency,[18],active: 6.01 µM and active: 23.9 µM
same,Potency,[11],"inconclusive: 33.5 µM [inhibitor, single point] and inconclusive: 29.8 µM [inhibitor]"
same,Potency,[12],"inconclusive: 33.5 µM [falling, single point]"
same,Potency,[13],"inconclusive: 33.5 µM [cytotoxic, single point]"
